{
  "source": "PubChem BioAssay AID1476",
  "about": "(National Center for Advancing Translational Sciences (NCATS), 2009)",
  "note": "In all, about 200,000 compounds went through this assay and about 4,500 (2.2%) were called active. This list was built around the results that the source calls inconclusive (neither active nor inactive); the mix of calls is not that of the screen. Calls follow the shape of the dose curve; as a rule, active = well fitted inhibition curve with a large enough effect; inconclusive = small, poorly fitted or top-dose-only effect, or effect the other way; inactive = flat fitted curve, though single readings scatter. Where the call is inconclusive, the potency comes from a doubtful curve fit. Potency is read from the fitted curve at half-maximal effect; tags tell the direction and shape of the fitted curve.",
  "data": [
    {"biological_target": "Cruzipain (Trypanosoma cruzi) (UniProt P25779)", "sequence (P25779 whole entry, looked up)": "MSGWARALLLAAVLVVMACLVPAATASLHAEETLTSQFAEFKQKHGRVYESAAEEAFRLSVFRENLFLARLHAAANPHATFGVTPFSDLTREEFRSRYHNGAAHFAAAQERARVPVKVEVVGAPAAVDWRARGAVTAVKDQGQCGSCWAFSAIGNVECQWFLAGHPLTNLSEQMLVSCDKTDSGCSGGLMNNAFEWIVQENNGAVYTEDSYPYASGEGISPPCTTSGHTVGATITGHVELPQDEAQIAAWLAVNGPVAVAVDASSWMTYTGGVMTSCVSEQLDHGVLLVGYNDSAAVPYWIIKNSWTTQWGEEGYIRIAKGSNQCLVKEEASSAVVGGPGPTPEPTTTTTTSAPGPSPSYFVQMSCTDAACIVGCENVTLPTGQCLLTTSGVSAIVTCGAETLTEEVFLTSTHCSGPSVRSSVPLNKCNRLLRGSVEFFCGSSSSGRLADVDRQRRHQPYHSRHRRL", "test": "qHTS Assay for Promiscuous and Specific Inhibitors of Cruzain (without detergent); also: nearly all actives have a fitted effect of over 40% in size;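 as to max response, negative = inhibition: plate controls were enzyme without inhibitor for no effect and buffer without enzyme for full effect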", "conditions": "purified cruzain, Z-FR-AMC fluorescence, no detergent", "in_short": "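Purified cruzain at 1.5 nM, pre-incubated 15 min with compound at room temperature in 100 mM sodium acetate pH 5.5, 5 mM DTT, 0.00005% Triton X-100. Reaction started with 2 uM Z-FR-AMC; AMC fluorescence increase over 60 s gives rate.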", "values": [
      {"smiles": "Cc1cc(C)c2nc(N3CCCN(C(=O)c4ccco4)CC3)c(C#N)cc2c1", "Potency": "inconclusive: 39.8 µM [activator, single point]"},
      {"smiles": "Cc1cccc2cc3c(N)c(C#N)sc3nc12", "max response, negative = inhibition": "inactive: -10.4%"},
      {"smiles": "Cc1cc(C)nc(Nc2n[nH]c(-c3cccc4ccccc34)n2)n1", "Potency": "inconclusive: 31.6 µM [activator, single point]"},
      {"smiles": "CCOc1ccc(-c2nc(C#N)c(NCC(C)C)o2)cc1", "max response, negative = inhibition": "inactive: 17.4%"},
      {"smiles": "Cc1ccc2c(c1)N(C(=O)CCC(=O)NCc1ccccc1F)CC(C)O2", "note": "(stereo not drawn)", "max response, negative = inhibition": "inactive: 2.02%"},
      {"smiles": "CC(C)(C)c1ccc(O)c(CN(Cc2c(O)ccc3ccccc23)C2CCCCC2)c1", "max response, negative = inhibition": "inactive: -0.68%"},
      {"smiles": "CCCn1c(-c2ccc(F)cc2)nc2c(NC(C)CCCN(CC)CC)nc(C)nc21", "note": "(stereo not drawn)", "max response, negative = inhibition": "inactive: -1.59%"},
      {"smiles": "O=C(COc1ccccc1)Nc1cccc(-c2nc3cc4ccccc4cc3[nH]2)c1", "Potency": "inconclusive: 39.8 µM [inhibitor, single point]"},
      {"smiles": "COc1cc(Nc2nc3c(S(=O)(=O)c4ccccc4)nnn3c3ccc(Cl)cc23)cc(OC)c1", "max response, negative = inhibition": "inactive: 0.781%"},
      {"smiles": "CN(C)c1ccc(-c2noc(C3CCN(S(=O)(=O)c4cccc(Cl)c4)CC3)n2)cc1", "Potency": "inconclusive: 39.8 µM [inhibitor, single point]"},
      {"smiles": "CCN(C1CCCCC1)S(=O)(=O)c1ccc(S(=O)(=O)N2CCN(CCC#N)CC2)cc1", "Potency": "inconclusive: 31.6 µM [activator, single point]"},
      {"smiles": "COc1ccc(C(c2nnnn2CS(=O)(=O)c2ccc(C)cc2)N2CCN(c3ncccn3)CC2)cc1", "note": "(stereo not drawn)", "Potency": "inconclusive: 39.8 µM [activator, single point]"},
      {"smiles": "COc1ccc(-c2nnc3ccc(SCC(=O)Nc4nc5ccccc5s4)nn23)cc1OC", "Potency": "inconclusive: 39.8 µM [activator, single point]"},
      {"smiles": "O=S(=O)(NCCc1csc2nc(-c3ccc(Cl)cc3)nn12)c1cccs1", "max response, negative = inhibition": "inactive: -2.82%"},
      {"smiles": "O=C1CN(C(=O)c2ccc(S(=O)(=O)N3CCCC3)cc2)C(c2ccc(F)cc2)c2cc(Br)ccc2N1", "note": "(stereo not drawn)", "max response, negative = inhibition": "inactive: -8.8%"},
      {"smiles": "CC(=O)N1CCc2c(sc3c2c(=O)n(-c2ccccc2C)c(=O)n3CC(=O)Nc2ccccc2)C1", "Potency": "inconclusive: 39.8 µM [activator, single point]"},
      {"smiles": "Cc1ccc(-n2c(SCC(=O)Nc3ccc(N4CCOCC4)cc3)nc3ccccc3c2=O)cc1", "Potency": "inconclusive: 39.8 µM [activator, single point]"},
      {"smiles": "C[C@@H]1NC(=O)c2cc([N+](=O)[O-])cc(I)c2OCC[C@@H](C(=O)NC(CC(=O)O)C(N)=O)NC(=O)[C@H](CCC(=O)O)NC1=O", "note": "(stereo partly drawn)", "Potency": "inconclusive: 31.6 µM [activator, single point]"},
      {"smiles": "O=C(CCN1C(=O)COc2ccccc21)NCc1ccco1", "max response, negative = inhibition": "inactive: -6.69%"},
      {"smiles": "CCC1=C(OC(=O)N(CC)CC)N2C(=O)OC(=NCc3ccccc3)[C@]2(C)[C@H]2C1=CC[C@H]1C(=O)N(CC)C(=O)[C@H]12", "Potency": "inconclusive: 31.6 µM [activator, single point]"},
      {"smiles": "COC(=O)c1scc(-c2ccc(C)cc2)c1S(=O)(=O)N1CCN(c2cccc(Cl)c2)CC1", "Potency": "inconclusive: 31.6 µM [inhibitor, single point]"},
      {"smiles": "COc1cccc(Cn2c(=O)c(-c3ccc(F)cc3)nc3cnc(N4CCNCC4)nc32)c1", "max response, negative = inhibition": "inactive: 5.03%"},
      {"smiles": "C=CCn1c(CNC(=O)c2ccco2)nnc1SCC(=O)N1c2ccccc2Sc2ccccc21", "Potency": "inconclusive: 39.8 µM [activator, single point]"},
      {"smiles": "CCc1ccccc1Nc1sc(C(=O)c2ccccc2)c(N)c1S(=O)(=O)c1ccccc1", "Potency": "active: 6.31 µM"},
      {"smiles": "COc1cccc(-c2nc(CS(=O)CC(=O)NCc3ccccc3Cl)c(C)o2)c1", "note": "(stereo not drawn)", "Potency": "inconclusive: 39.8 µM [activator, single point]"},
      {"smiles": "COc1ccc(Oc2ncc3nc(C)c(=O)n(Cc4cccc(OC)c4)c3n2)cc1", "Potency": "inconclusive: 39.8 µM [activator, single point]"},
      {"smiles": "CCOc1ccccc1NC(=O)c1cc(S(=O)(=O)N2CCC3(CC2)OCCO3)ccc1F", "Potency": "inconclusive: 31.6 µM [activator, single point]"},
      {"smiles": "CCOc1ccc(CNC(=O)c2cc3c(=O)oc4ccc(C)cc4c3s2)cc1", "max response, negative = inhibition": "inactive: 5.83%"},
      {"smiles": "O=C(/C=C/c1cccc2ccccc12)c1ccncc1", "Potency": "inconclusive: 39.8 µM [activator, single point]"},
      {"smiles": "Cc1ccccc1OCC(=O)NNC(=O)Nc1ccc(Cl)cc1", "Potency": "inconclusive: 39.8 µM [inhibitor, single point]"},
      {"smiles": "O=C(CSc1nc2c([nH]c3ccccc32)c(=O)n1-c1ccccc1F)Nc1cccc(Cl)c1", "Potency": "active: 12.6 µM"},
      {"smiles": "CC(Nc1oc(-c2ccc(COc3ccccc3)o2)nc1C#N)c1ccccc1", "note": "(stereo not drawn)", "Potency": "active: 20 µM"},
      {"smiles": "Cn1nnc2cc(C(=O)N3CCCCCC3)ccc21", "max response, negative = inhibition": "inactive: -17.3%"},
      {"smiles": "CCOC(=O)N1CCN(C(=O)CC(=O)Nc2ccc3nc4n(c(=O)c3c2)CCCCC4)CC1", "max response, negative = inhibition": "inactive: 8.87%"},
      {"smiles": "CCCCNc1ccc(C(=O)OCCOCCOCCOCCOCCOCCOCCOCCOCCOC)cc1", "Potency": "inconclusive: 7.94 µM [activator, full curve]"},
      {"smiles": "CCOc1ccc(C(c2c(O)cc(C)n(Cc3ccco3)c2=O)N2CCN(C)CC2)cc1", "note": "(stereo not drawn)", "Potency": "inconclusive: 31.6 µM [inhibitor, single point]"},
      {"smiles": "CCOc1ccc(-c2cn3c(n2)sc2cc(C(=O)NC(C)C45CC6CC(CC(C6)C4)C5)ccc23)cc1", "note": "(stereo not drawn)", "max response, negative = inhibition": "inactive: 0.168%"},
      {"smiles": "O=C(Cc1ccc(Cl)cc1)NC1CC(=O)N(c2ccc3c(c2)OCCO3)C1", "note": "(stereo not drawn)", "max response, negative = inhibition": "inactive: 5.54%"},
      {"smiles": "COc1ccc(Cl)cc1NC(=O)CSc1nc(N2CCCCC2)nc(N2CCCCC2)n1", "Potency": "active: 15.8 µM"},
      {"smiles": "Cc1cc(C)cc(NC(=O)c2oc3ccccc3c2COc2ccccc2)c1", "Potency": "inconclusive: 20 µM [inhibitor, partial curve]"},
      {"smiles": "CCc1ccccc1N(CC)C(=O)c1cc2c(s1)-c1ccccc1SC2", "max response, negative = inhibition": "inactive: -9.4%"},
      {"smiles": "O=c1cnc2cnc(Oc3ccccc3)nc2n1Cc1cccs1", "max response, negative = inhibition": "inactive: -1.36%"},
      {"smiles": "Cc1ccc2nc(SCC(=O)c3c(C)[nH]c4ccccc34)[nH]c2c1", "Potency": "inconclusive: 31.6 µM [inhibitor, single point]"},
      {"smiles": "O=C(OCc1cc(=O)n2nc(C3CC3)sc2n1)c1cccc(NC(=O)c2ccccc2Cl)c1", "max response, negative = inhibition": "inactive: -9.47%"},
      {"smiles": "COc1ccc(-c2cn3c(n2)sc2cc(C(=O)NCCc4ccccc4)ccc23)cc1", "Potency": "inconclusive: 39.8 µM [activator, single point]"},
      {"smiles": "N[C@@](CC(=O)O)(Cc1ccccc1)C(=O)O", "max response, negative = inhibition": "inactive: -1.83%"},
      {"smiles": "CCOc1ccccc1C(=O)Nc1cccc(-c2nc3ccccc3s2)c1", "max response, negative = inhibition": "inactive: -7.22%"},
      {"smiles": "CCC(=O)N1CCCc2cc(S(=O)(=O)N3CCC(C(=O)NC4CCC(C)CC4)CC3)ccc21", "note": "(stereo not drawn)", "Potency": "inconclusive: 25.1 µM [activator, single point]"},
      {"smiles": "Cc1cc(C)cc(NC(=O)NCc2noc3ccccc23)c1", "max response, negative = inhibition": "inactive: 1.18%"},
      {"smiles": "Cc1ccc(Cl)cc1N1CCN(C(=O)CSc2ccsc2[N+](=O)[O-])CC1", "Potency": "inconclusive: 39.8 µM [inhibitor, single point]"},
      {"smiles": "Cc1ccc(C2Nc3cccc4cccc(c34)N2)s1", "Potency": "active: 20 µM"},
      {"smiles": "COc1ccc(Cc2nnc(NC(=O)c3ccc(Cl)c([N+](=O)[O-])c3)s2)cc1", "Potency": "active: 15.8 µM"},
      {"smiles": "COc1cc(/C=N/Nc2ccc([N+](=O)[O-])cc2S(=O)(=O)N2CCOCC2)cc(OC)c1OC", "Potency": "inconclusive: 39.8 µM [activator, single point]"},
      {"smiles": "CS(=O)(=O)N1CCN(c2ccccc2NC(=O)c2ccc3ccccc3c2)CC1", "Potency": "active: 20 µM"},
      {"smiles": "CCN(C(=O)c1c(C)oc2ncnc(N3CCCCC3)c12)c1cc(C)ccc1C", "max response, negative = inhibition": "inactive: 0.448%"},
      {"smiles": "Cc1ccc(C(=O)NCCc2csc(-c3cccc(F)c3)n2)cc1C", "Potency": "inconclusive: 39.8 µM [activator, single point]"},
      {"smiles": "COc1ccc(-c2noc(CN(C(=O)c3ccc(C)cc3C)C(C)C)n2)cc1", "max response, negative = inhibition": "inactive: 7.16%"},
      {"smiles": "CCOC(=O)c1ccccc1NC(=O)CSc1ccc(-c2sc(C)nc2C)nn1", "Potency": "inconclusive: 39.8 µM [activator, single point]"},
      {"smiles": "Cc1ccc(NC(=O)CN2C(=O)N/C(=C/c3ccco3)C2=O)cc1", "Potency": "inconclusive: 12.6 µM [inhibitor, partial curve]"},
      {"smiles": "Cc1ccc(N(Cc2cccs2)C(=O)c2ccc(OC(C)C)cc2)cc1", "max response, negative = inhibition": "inactive: -22.8%"},
      {"smiles": "O=[N+]([O-])c1ccccc1/C=N/Nc1nnc(-c2ccccc2)c(-c2ccccc2)n1", "Potency": "inconclusive: 39.8 µM [inhibitor, single point]"},
      {"smiles": "Cc1cc(-c2cccc([N+](=O)[O-])c2)nc2ccc3ccccc3c12", "Potency": "inconclusive: 39.8 µM [inhibitor, single point]"},
      {"smiles": "c1ccc(CNc2cc(-c3ccoc3)ncn2)cc1", "max response, negative = inhibition": "inactive: -25.1%"},
      {"smiles": "CCN(CC)C(=O)Cn1c(SCC(=O)Nc2ccc(F)cc2)nc2ccccc21", "max response, negative = inhibition": "inactive: 5.28%"},
      {"smiles": "Cc1ccc(-c2csc(N3CCC(NS(=O)(=O)c4ccc5c(c4)OCCO5)CC3)n2)cc1", "Potency": "inconclusive: 25.1 µM [inhibitor, single point]"},
      {"smiles": "COc1ccccc1NC(=O)c1cc2c(-c3ccccc3)nn(-c3ccccc3)c2s1", "Potency": "inconclusive: 2 µM [inhibitor, partial curve]"},
      {"smiles": "CCOc1ccccc1NC(=O)Cn1c(=O)nc(-c2ccccc2F)c2cc(Cl)ccc21", "max response, negative = inhibition": "inactive: -1.62%"},
      {"smiles": "S=C(Nc1ccccc1)Nc1nc2ccccc2n1CCOc1ccccc1", "Potency": "active: 10 µM"}
    ]}
  ]
}
